Test results taken from the BET-seq Pho4 binding data (Le et al. 2018).
The list shows a part of the results. These are noisy estimates, calculated here from bound and input reads.

Each sequence was assayed against T1, Pho4 (S. cerevisiae) (UniProt P07270) (assay: relative binding free energy (BET-seq); higher = weaker binding). Settings: reference: library average.
T1 sequence: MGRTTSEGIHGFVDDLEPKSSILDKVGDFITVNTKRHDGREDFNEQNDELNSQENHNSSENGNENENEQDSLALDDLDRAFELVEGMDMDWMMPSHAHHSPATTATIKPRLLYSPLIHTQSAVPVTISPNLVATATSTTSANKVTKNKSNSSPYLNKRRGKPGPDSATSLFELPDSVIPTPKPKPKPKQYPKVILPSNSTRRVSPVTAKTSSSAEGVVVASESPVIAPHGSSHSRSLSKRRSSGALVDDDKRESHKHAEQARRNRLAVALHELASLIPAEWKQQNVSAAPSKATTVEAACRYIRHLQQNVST

Sequence	relative binding free energy [kcal/mol]
TGTGGCACGTGGGAGC	-0.22
TAATGCACGTGTGTAT	-0.05
TGTTCCACGTGGTGGA	-0.02
TTGGTCACGTGATGGC	0.45
TTGAACACGTGCTGGT	-0.11
TGTAACACGTGTGAAG	0.03
TTGGTCACGTGAGCCT	0.26
GAAGGCACGTGTTATT	0.04
AACTTCACGTGAGGGG	0.45
TGAATCACGTGGGTGA	-0.05
TATAGCACGTGTGATA	0
TTTTTCACGTGCTGCG	0.3
AGTATCACGTGAAGGC	0.3
AGGCTCACGTGAGGAG	0.17
GGTATCACGTGTTATA	0.05
TGTTGCACGTGCAGAG	-0.09
GGTTGCACGTGGATGC	0.03
GTCGTCACGTGCTTGT	0.1
AGGCTCACGTGTGTGC	0.29
AAATGCACGTGTAAGG	0.11
GTCGTCACGTGCTTGG	0.11
GTTTTCACGTGTTTAC	0.31
TAACTCACGTGGGAGT	0.22

Sequence	relative binding free energy [kcal/mol]
TAACTCACGTGTTTTT	0.16
TACGTCACGTGAGGTA	0.27
GTTATCACGTGCTGGG	0.32
TAGCACACGTGTTGTA	0.06
TGGAGCACGTGTTGTG	-0.11
GCGGGCACGTGGGACG	-0.18
GGGTTCACGTGAGTCA	0.31
AGTGTCACGTGAAGAT	0.07
TTGGACACGTGATGAA	0.12
AGGATCACGTGTATTT	0.12
ACGTGCACGTGTTAGT	-0.19
TGTAGCACGTGTATCG	0.05
CTGAGCACGTGTGGTG	-0.06
TTAGGCACGTGCACGT	-0.15
GTTTTCACGTGGTAAT	0.27
GGTTGCACGTGGTAGG	-0.06
TTGTCCACGTGGTGGC	-0.03
GAGGGCACGTGGCGGT	-0.05
TATGTCACGTGGAATC	0.32
TTGCGCACGTGTGCTG	-0.24
AAAGACACGTGTGTAT	-0.01
CTGCTCACGTGTTGGG	0.19
TGTATCACGTGGGCGC	0.06

Sequence	relative binding free energy [kcal/mol]
TTGTTCACGTGTAGGG	0.28
TCATGCACGTGTATAT	-0.02
CGTCTCACGTGGTGTG	0
TATGGCACGTGTGCGC	-0.09
GGATACACGTGTATGT	0.06
AGGTGCACGTGCTTAA	0.03
GATAGCACGTGGTTTA	0.06
GATATCACGTGTGGTG	0.24
TGGTCCACGTGTTGAG	0.06
CAGGTCACGTGAGGAG	0.32
TAGTGCACGTGCTTTG	-0.22
TTGCGCACGTGATGAG	0.07
TTCTGCACGTGGTCTG	-0.01
TGGAGCACGTGTAGAG	-0.16
TCATACACGTGTGTTT	0.03
TGTAGCACGTGATTTG	0.08
GATTACACGTGGGTGT	0.13
AATTTCACGTGGAAGA	0.43
TGGCGCACGTGGTTAA	-0.18
GGTGCCACGTGTTTGT	0
TTGTGCACGTGGTTGA	-0.03
GTTTGCACGTGAGCGA	0.13
GAGGGCACGTGTTAGC	-0.05

Sequence	relative binding free energy [kcal/mol]
TTTAGCACGTGGAGGC	-0.13
GTTCGCACGTGTGGAT	0.06
TCTTTCACGTGTTGGG	0.29
TAGATCACGTGTTGGT	0.11
TAGAGCACGTGACTGT	0.04
TAAAGCACGTGCGGGT	-0.17
TTATGCACGTGGTTTT	-0.03
TTGAGCACGTGTGTCG	-0.03
AGAAGCACGTGGTGCG	-0.03
GTTAACACGTGGCTTG	-0.03
AATTGCACGTGTATTC	0.11
TTGAACACGTGAAGGA	0.28
TTAGGCACGTGAAATA	0.08
AGTTGCACGTGTGATA	0.09
ATTGTCACGTGATGGC	0.16
GCAGTCACGTGTGGGG	0.14
ATGATCACGTGGAGAT	0.12
GCTAGCACGTGGGTTT	-0.11
GGGATCACGTGTGTTA	0.3
TTCGACACGTGTTAGG	0.11
TGCTGCACGTGGTTAT	-0.12
GTACTCACGTGTGGGA	0.23
GTTTGCACGTGAAGTG	0.36

Sequence	relative binding free energy [kcal/mol]
CAGAGCACGTGGAGGT	-0.17
GTCTTCACGTGTTGGA	0.3
ATATGCACGTGGGATG	-0.2
GGAATCACGTGTTATG	0.22
TAGTTCACGTGAATTT	0.35
TTCTTCACGTGAGGTA	0.38
TATTACACGTGTAGTT	0.26
AGTATCACGTGGTCGC	0.1
AGCCTCACGTGTGGTT	0.23
AAGGGCACGTGTTCGA	0.01
TATGCCACGTGTTCGG	-0.03
GTGAGCACGTGGGGAT	-0.14
TCGTTCACGTGTAGGT	0.26
TAAAGCACGTGATGTA	0.01
TTCGTCACGTGATATG	0.17
TTTGGCACGTGATAGC	-0.09
GTATTCACGTGTTATA	0.25
CTATGCACGTGTTAGT	-0.09
AGGCGCACGTGCGTGG	-0.21
ATGGTCACGTGATCTG	0.16
TAATACACGTGGGTGT	-0.23
AGGGTCACGTGTATCA	0.18
GGGTGCACGTGCCAGG	-0.19
